± gives the standard deviation of the averaged measurements. This is one part of the list.
test system: PfAP2-LT AP2 domain (GST-tagged); experiment: gcPBM binding intensity (ln(normalized median fluorescence intensity)); higher = stronger DNA binding
Summary of the method: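 An Agilent 4 × 180k array carrying primer-extended double-stranded 36-bp intergenic genomic probes and negative controls received GST-tagged P. falciparum DNA-binding domains expressed in E. coli, about 25 μg on average, for 1 h. The binding buffer contained 1× PBS, 1% milk, 0.2 mg/ml BSA, 0.5% salmon testes DNA and 0.03% Triton X-100. Binding intensity is the top Masliner-normalised natural-log median intensity across replicate spots of either probe orientation, read after Alexa488 anti-GST antibody staining and a 488 nm scan.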

Row | Sequence | gcPBM binding intensity (ln)
1 | ATATGTATATATGTATGTACGTACAAATTGTTGTAA [XGTACX_site8832] | 9.19 ± 0.4
2 | TGTATAAAGATATATACACACATATTTATTTATATA [CACACA_site6493] | 8.71 ± 0.42
3 | TACAAAATAACTAGCACACATATGTATAAACCTATA [CACACA_site3718] | 9.16 ± 0.39
4 | ATATATAAAATTATATGTACATATATAATATATATA [XGTACX_site529] | 8.77 ± 0.39
5 | TATATAAAAATCAATTGTACTTTTTTTTTTTTTTTT [XGTACX_site7327] | 8.41 ± 0.42
6 | TATATACAAAAATGCACACGAAAAGTAATATATATA [CACACA_site4173] | 9.18 ± 0.35
7 | AAATAACACATATATACACACATATAACTATAATAT [CACACA_site7298] | 9.29 ± 0.4
8 | TATATATATATGTGCACACATATATAATATGTATAA [CACACA_site715] | 9.54 ± 0.31
9 | TAGAACAAATAAAACACACACATATATATATATATG [CACACA_site2768] | 9.54 ± 0.27
10 | TCATCCGTTTTAAGAAGTACATATTTGAACATATAA [XGTACX_site8040] | 8.37 ± 0.46
11 | TTTTTTTCTTTTCAAACACACAATTGGTATATATTA [CACACA_site3320] | 8.79 ± 0.49
12 | TTTATTTTTTAATGTTGTACAATGTTGTTTAATCAA [XGTACX_site6489] | 8.67 ± 0.27
13 | CATAGGATTATACTTTTGGAATATTATTAAATATGT [XGTACX_negctrl_site75] | 8.54 ± 0.37
14 | ACATGTCAAACATTTGCACACAAAAAAATAAAAATT [CACACA_site691] | 9.16 ± 0.42
15 | AAAAAAAAAAAAAACACACACACAATAGTATATAAA [CACACA_site957] | 9.55 ± 0.43
16 | TTGTTACTGTTTTGGTGTACAAAAAAAAAAAATATA [XGTACX_site5762] | 8.55 ± 0.49
17 | AATACAGATAATACAACACACAAGTAATATAAACCT [CACACA_site5900] | 9.35 ± 0.32
18 | TATATATATTTTTATGCACACACAAAGAAAATTTTC [CACACA_site8931] | 9.1 ± 0.38
19 | TACTTACTTACTTACTCACACACATATACAAAGAAA [CACACA_site3348] | 8.99 ± 0.4
20 | ATCACAAAATGGAATGTTCTATGATATATATGTATA [XGTACX_negctrl_site460] | 8.65 ± 0.4
21 | TGTAAATATTTATTCACACATAATCAATTAGAAAAA [CACACA_site5944] | 8.43 ± 0.37
22 | GATGATTATATATATACGCACACTTTTTTTTTTTTT [CACACA_site2652] | 8.96 ± 0.43
23 | AATATATAAATCTATTGTACATAAAGAGGATAATAA [XGTACX_site1022] | 8.8 ± 0.51

Row | Sequence | gcPBM binding intensity (ln)
24 | TATAAATACAGATACACACACACACCGATATATATA [CACACA_site5271] | 9.94 ± 0.18
25 | ATAAATATATATATCACACATATATAATTATATATA [CACACA_site4787] | 8.71 ± 0.32
26 | TATGTAGTTTTAAAGTGTACTTATATATATTAATTG [XGTACX_site378] | 8.6 ± 0.49
27 | TACATACATATATTATGTACATATTTTATTTTTATT [XGTACX_site1642] | 8.97 ± 0.43
28 | TTTCTTTTAATAATTAAATATTTATTTATGATTATA [TGCATGCA_negctrl_site30] | 8.3 ± 0.57
29 | AAAAAAAATTCGTGTGTGCGCATATATAATATATAA | 9.43 ± 0.38
30 | AAGCATACATCAAGCACACACACACCCACAGAGACA [CACACA_site4362] | 9.91 ± 0.22
31 | TCTATACCAGAAAAGGGTACATATTTTGGATTGAAC [XGTACX_site8402] | 8.71 ± 0.51
32 | TAATAATACCCAAGCACACACACACCCATATATATA [CACACA_site4831] | 10.1 ± 0.33
33 | ATTGCAAGTTACTTGTGTACTTATAAGATTAAAAGA [XGTACX_site7696] | 8.62 ± 0.45
34 | AATATAAATAAAAACACACACAATGGTACATATATA [CACACA_site3671] | 9.42 ± 0.4
35 | TACTGTGATAGCACCACACACGCAAAAGTGGGTATA [CACACA_site4749] | 9.12 ± 0.46
36 | TTTAAATCGTTAAAAACACACAAAAAAAATCAATTA [CACACA_site2519] | 8.56 ± 0.43
37 | TCTTTTTCTTCTTATGTGCACATCAATTATGCTTCT | 9.18 ± 0.62
38 | ACTATCATTCATAGGTGTACCTAAATATATATATAT [XGTACX_site1696] | 8.91 ± 0.25
39 | GATAATTACGGACACACACACACACGCACAACTAAA [CACACA_site7254] | 10.215 ± 0.0071
40 | CGAATATATTCTAGACGTACTATATAATATATATAT [XGTACX_site4953] | 8.72 ± 0.36
41 | TTATTTCGAAGAAAATGTACATATATAAATATATAC [XGTACX_site3308] | 8.47 ± 0.42
42 | ATAATATTTTTTAATTGTACGTTCCATTTTTTTAAA [XGTACX_site1227] | 8.68 ± 0.43
43 | CAACAATTTCGTCATACACACATTCAGAATATAGAT [CACACA_site7166] | 9.06 ± 0.33
44 | ATAATAAAAATATATACATGCATTATTATATATATA [TGCATGCA_site799] | 8.63 ± 0.33
45 | ATATATAATTATTGAAGTACTTGTTCATAAAATGGT [XGTACX_site5656] | 8.69 ± 0.42
46 | TATATGAGCATAAAGACACACAAATAAAACCAAACA [CACACA_site3856] | 9.18 ± 0.45

Row | Sequence | gcPBM binding intensity (ln)
47 | AAAATAAAATGAAAACGTACATGATAAATTTTAATT [XGTACX_site4199] | 8.91 ± 0.42
48 | ATATTATAAATATAATGTACGTTTTAATTTCATGTT [XGTACX_site3557] | 8.8 ± 0.46
49 | ATAACTAATATGAAATGTACCCATCAAAGTGTGCAT [XGTACX_site4463] | 8.85 ± 0.38
50 | TACTACACACATTCATGTACTTGATAAATTAATGAT [XGTACX_site6444] | 9.04 ± 0.42
51 | TAATTTGTTATTTATTGTACAAACATTATATGTTAA [XGTACX_site6637] | 8.51 ± 0.38
52 | AAAATTAAAATACGTACACACCTTATCTTTTTGGCT [CACACA_site4311] | 9.04 ± 0.52
53 | AGAACAATTCTGTGGTGTACCAAAAAAAATTTAATT [XGTACX_site8082] | 8.99 ± 0.33
54 | TAAATGAATTTTACTATACACACGTATACATTTGTA [CACACA_site1210] | 9.01 ± 0.42
55 | ATATTTAAATTTTGCACACGCATATGAAATTAGGAC [CACACA_site1035] | 9.01 ± 0.28
56 | AAAATAAATAAATATACACACCATATTTATATTTTT [CACACA_site7361] | 8.88 ± 0.37
57 | CTATGAATAGGAAAAAGTACTAAACCTTTATATATA [XGTACX_site5022] | 8.59 ± 0.42
58 | ATTTTGCCTGACCCATGTACATATTATTTTTTGCAT [XGTACX_site2258] | 9.33 ± 0.44
59 | CACATAAAAATTGTGTTGCACTTTTATTCTTATATC | 8.98 ± 0.5
60 | AGTAGAATATCCCCTACACACCCAAATAATTTACAA [CACACA_site8339] | 9.25 ± 0.38
61 | TAACTTAATATTAATGCACACAATTTATATATATAT [CACACA_site3903] | 8.9 ± 0.33
62 | TCAAATATTCATAAATGTACATTTATTTTTCTCCTT [XGTACX_site5827] | 8.79 ± 0.53
63 | AACTTACTTGGACATACACACATATATATATATATA [CACACA_site2978] | 9.78 ± 0.3
64 | TTTATATATTTTAGGTGTACATAAATTTTTATATAT [XGTACX_site5597] | 8.6 ± 0.45
65 | GAAACATACATTTTTTGTCCGTAAGTATTATAATAA [XGTACX_site3273] | 8.65 ± 0.44
66 | ATACATCAAGGACACACACACACACCCACACCCACA [CACACA_site8013] | 10.4 ± 0.27
67 | AATGCAAAGGTGAAAGAACACACAAAAAAAAAAAAA [CACACA_site9333] | 9.03 ± 0.69
68 | GTGTTAAATTTTTGAACATGCAAGTTTTATTATTGA [TGCATGCA_site478] | 8.54 ± 0.48
69 | CATAGACACGAACATACACACGGACATACATACGGA [CACACA_site8101] | 9.5 ± 0.35

Row | Sequence | gcPBM binding intensity (ln)
70 | TTTTGTTGAAAAAAAAAAAAAAAATTAAATTAAATT [GTGCAC_negctrl_site636] | 7.97 ± 0.52
71 | GTAACAAATTAATAGTGTACATATTTTAAAAAAATA [XGTACX_site7150] | 8.74 ± 0.45
72 | ATATGATAGTTTATATGTACATAAATAAATACATAC [XGTACX_site2917] | 8.93 ± 0.46
73 | ATTAATAATTATTATGGTACACATGTAACTACTCTC [XGTACX_site198] | 8.89 ± 0.55
74 | ATCTCTTACATATTCACACACATATAAATAACTACA [CACACA_site6816] | 9.15 ± 0.41
75 | AAAGAAAAAAAATAATGTACATATGTATTTGAGAAA [XGTACX_site3571] | 8.91 ± 0.6
76 | AAAAAAATAAAACACATACATATATGTATATATATA [GTGCAC_negctrl_site390] | 8.88 ± 0.44
77 | TTCTAAAATTATATAGTGCAATTATTTTATTTTTCT | 8.48 ± 0.54
78 | TAAATATATATATAAGTGCATTATATATATATATAA | 8.74 ± 0.34
79 | ATAAATCCCAAAACCTTGCAAGACAACGTTTGATCA [CACACA_negctrl_site1327] | 8.61 ± 0.37
80 | CTATATAAAAAAATTGCACACATAAATATATACATA [CACACA_site8325] | 9.01 ± 0.39
81 | TGTAGAAGAACCCATGCATGCAGTATGAAAAAAAAA [TGCATGCA_site907] | 9.05 ± 0.35
82 | AAAAAAAGAAAAAAACGTACATGAAAATTTTTTGTT [XGTACX_site5135] | 8.96 ± 0.42
83 | TTATGTATTTATTTATGTACTAATTGTATGCATATT [XGTACX_site6436] | 8.96 ± 0.4
84 | CATATACATAGACACACACACACATAAATAAATATA [CACACA_site6749] | 9.91 ± 0.33
85 | TTTCCTGGTCAAGGGGTTACGGTTACGTCCTCTTGC [CACACA_negctrl_site856] | 8.82 ± 0.4
86 | ATTTGTATATATAATTGTACGCATATTCTATACGAT [XGTACX_site7367] | 8.94 ± 0.4
87 | ATACTTTATAAATACTAAAGTGTATTTTGTAATATA [CACACA_negctrl_site1710] | 8.53 ± 0.45
88 | CATACATACATACATACACACATATATAAATATATG [CACACA_site7028] | 9.34 ± 0.42
89 | TAAGTGATCGCATAATGTACATATTATTTATTATTT [XGTACX_site3061] | 8.8 ± 0.37
90 | TACATTTAAAAAAAAACACACATATTTATATTTATA [CACACA_site7236] | 8.48 ± 0.53

Reference: the supplement of paper PMC11417369
